According to PubChem BioAssay AID686978 (National Center for Advancing Translational Sciences (NCATS), 2013):
Hit rate of the full screen: of about 420,000 compounds, about 64,000 (15%) were called active. Inconclusive results, whose numbers are uncertain, are shown with a selection of clear calls. Calls follow the shape of the dose curve; as a rule, active = well fitted inhibition curve with a large enough effect; inconclusive = small, poorly fitted or top-dose-only effect; inactive = flat fitted curve, though single readings scatter. Potencies of inconclusive entries are left out as doubtful fits.

Assay: qHTS for Inhibitors of human tyrosyl-DNA phosphodiesterase 1 (TDP1): qHTS in cells in absence of CPT; also: nearly all actives have a fitted effect of over 55% in size
Settings: DT40 Tdp1-/- hTDP1 cells, no CPT, ATP luminescence, 48 h; activity change, negative = growth inhibition: at 46.2 µM (top of the series) unless noted
How it was run: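 Camptothecin absent (DMSO only). Human TDP1-complemented DT40 knockout cells, 400 cells/well, 37 °C for minimum 48 hr; ATP measured via CellTiter-Glo, 30 min dark incubation, luminescence.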
% is scaled to controls: 0 for no effect and ±100 for the full control effect; potency is read from the fitted curve at half-maximal effect; tags tell the direction and shape of the fitted curve.

With `Cc1ccc(Cl)c(NC(=O)CN(C)CC(=O)Nc2ccc(F)c(F)c2F)c1Cl` as the compound, how does the Potency read?
Its Potency is inconclusive [inhibitor, single point].

For `CCOc1ccc(NC(=O)COc2nsnc2N2CCOCC2)cc1`, which Potency is on record?
The Potency was active: 13 µM.

For `COc1ccccc1C(=O)N/C(=C\c1cn(S(=O)(=O)N(C)C)c2ccccc12)C(=O)NCCCn1ccnc1`, which Potency is on record?
The Potency was inconclusive [inhibitor, single point].

Which Potency does the source give for `COc1ccc(CCNC(=O)C2CCN(S(=O)(=O)c3cnc[nH]3)CC2)cc1OC` here?
Its Potency is “inactive”.

For `CCOC(=O)C1=CN(Cc2cccc(-c3ccc4c(c3)OCO4)c2)S(=O)(=O)N(C)C1C` (centres undefined), which Potency is on record?
The Potency was active: 23.1 µM.

With `Cc1c(C(=O)Nc2ccccc2[N+](=O)[O-])csc1-c1ccccc1` as the compound, how does the Potency read?
The Potency was inconclusive [inhibitor, partial curve].

With `Cc1cccc(CN2CCC(CNC(=O)Cn3ncc4c([nH]c5ccc(C)cc54)c3=O)CC2)c1` as the compound, how does the Potency read?
Its Potency is inconclusive [inhibitor, full curve, poor fit].

For `Cc1ccc(SCc2ccc(C(=O)Nc3ccccc3C(=O)NC(C)C)cc2)cc1`, which Potency is on record?
The Potency was inconclusive [inhibitor, single point].

Which Potency does the source give for `Cc1c(C(=O)OCC(=O)N2CC(C)CC(C)C2)oc2ccccc12` (centres undefined) here?
The Potency was inconclusive [inhibitor, single point].

Which Potency does the source give for `Cn1c(SCC(=O)c2ccccc2)nnc1-c1ccc(O)cc1` here?
Its Potency is inconclusive [inhibitor, partial curve].

With `COc1ccccc1C(=O)Nc1nc2n(n1)C(c1ccc(F)cc1)C=C(c1ccc(Cl)cc1)N2` (centres undefined) as the compound, how does the Potency read?
The Potency was inconclusive [inhibitor, single point].

With `Cc1cc(NC(=O)CCN2C(=O)/C(=C\c3ccccc3Cl)SC2=S)no1` as the compound, how does the Potency read?
Its Potency is “inactive”.

With `O=C(COC(=O)/C=C/c1cn(-c2ccccc2)nc1-c1ccc2c(c1)OCCO2)NC1CCS(=O)(=O)C1` (centres undefined) as the compound, how does the Potency read?
Its Potency is active: 20.6 µM.

With `COc1ccccc1NC(=O)C1=C(C)Nc2nc(SC)nn2C1c1ccccc1Cl` (centres undefined) as the compound, how does the Potency read?
The Potency was inconclusive [inhibitor, partial curve].

Which Potency does the source give for `Cc1ccsc1C(=O)N1CCCC(CO)(Cc2ccccc2F)C1` (centres undefined) here?
The Potency was inconclusive [inhibitor, single point].

With `COC(=O)c1ccc(CNC(=O)COC(=O)Cc2ccsc2)cc1` as the compound, how does the Potency read?
Its Potency is “inactive”.

Which Potency does the source give for `O=C(Nc1ccc(F)cc1)c1ccc(C(=O)N2CCCC(O)C2)cc1` (centres undefined) here?
Its Potency is inconclusive [inhibitor, single point].

Which Potency does the source give for `O=C(Oc1ccc[nH]c1=O)c1ccccc1` here?
Its Potency is “inactive”.

For `O=C(C[n+]1cc(Br)cc(Br)c1)c1ccc(Cl)cc1`, which Potency is on record?
The Potency was “inactive”.

For `O=S(=O)(c1ccc(Cl)c(S(=O)(=O)N2CCCC2)c1)N1CCCC1`, which Potency is on record?
Its Potency is “inactive”.

With `CCOC(=O)Cc1csc(NC(=O)CSc2nnnn2-c2ccc(C)cc2C)n1` as the compound, how does the Potency read?
Its Potency is inconclusive [inhibitor, single point].

Which Potency does the source give for `Cc1ccc2cc3c(N)c4c(C)ccc(C)c4nc3nc2c1` here?
Its Potency is inconclusive [inhibitor, single point].

With `CCOC(=O)c1c(C)[nH]c(C)c1S(=O)(=O)NCCc1ccc(SC)cc1` as the compound, how does the Potency read?
Its Potency is inconclusive [inhibitor, single point].

For `CC(C)(C)c1ccc(NC(=O)CC2(C(F)(F)F)OCCO2)cc1`, which Potency is on record?
Its Potency is inconclusive [inhibitor, single point].

Which activity change, negative = growth inhibition does the source give for `COc1ccc(C2(C)NC(=O)N(CC(=O)Nc3ccc4ccccc4c3)C2=O)cc1OC` (centres undefined) here?
The activity change, negative = growth inhibition was inconclusive: -35% [inhibitor].

With `O=c1[nH]c(=S)[nH]c2c1[C@H](CCc1cccc(Cl)c1)O[C@H](C1CCCC1)C2` as the compound, how does the Potency read?
Its Potency is inconclusive [inhibitor, single point].

Which Potency does the source give for `COc1ccc(NC(=O)c2ccco2)cc1NC(=O)c1cc(Cl)ccc1OC` here?
Its Potency is “inactive”.

For `Cc1ccc2oc(C(=O)N(C)CCC(O)c3ccccc3)c(C)c2c1` (centres undefined), which Potency is on record?
Its Potency is inconclusive [inhibitor, single point].

For `COc1ccc(CN2CCOc3ccc(CN4CCCCC4CO)cc3C2)c(OC)c1` (centres undefined), which Potency is on record?
Its Potency is inconclusive [inhibitor, partial curve].

With `O=C(c1ccc(F)cc1)C1CCN(C(=O)NCc2ccccc2)CC1` as the compound, how does the Potency read?
The Potency was active: 23.1 µM.

For `Cc1cc(Br)cn2c(Cc3ccccc3C(F)(F)F)c(C3CCCCC3)nc12`, which activity change, negative = growth inhibition is on record?
The activity change, negative = growth inhibition was inconclusive: -34.5% [inhibitor].

Which Potency does the source give for `O=C(c1cnc(N2CCN(c3ncccn3)CC2)c2ccccc12)N1CCN(c2ncccn2)CC1` here?
Its Potency is active: 14.6 µM.

Which activity change, negative = growth inhibition does the source give for `COc1ccc2nc3ccccc3[n+]([O-])c2c1` here?
Its activity change, negative = growth inhibition is inconclusive: -32.6% [inhibitor].

For `O=C(CC(Cc1ccccc1)c1ccco1)NC1CCCCC1` (centres undefined), which Potency is on record?
The Potency was “inactive”.

Which Potency does the source give for `O=S1(=O)c2ccccc2N(Cc2cccc(F)c2)c2ccccc21` here?
Its Potency is inconclusive [inhibitor, single point].

For `C[C@@H](CN1CCC[C@H]1CN1C(N)=NC[C@@H]1Cc1ccccc1)N1C[C@@H](Cc2ccccc2)N(CCCC2CCCC2)C1=N`, which Potency is on record?
The Potency was inconclusive [inhibitor, single point].

For `CN(C(=O)c1ccccc1C(=O)OCC(=O)NC(=O)NC(C)(C)C)C1CCCCC1`, which Potency is on record?
The Potency was inconclusive [inhibitor, single point].

Which Potency does the source give for `COc1cccc(-c2cc(C(F)(F)F)nc(NCCc3ccc(OC)c(OC)c3)n2)c1` here?
Its Potency is inconclusive [inhibitor, single point].

Which Potency does the source give for `CCCCN=C(N)N=C(N)N` here?
The Potency was inconclusive [inhibitor, single point].

Which Potency does the source give for `COc1ccc2c(c1)OC(O)(C(F)(F)C(F)F)CC2=O` (centres undefined) here?
Its Potency is active: 23.1 µM.

For `O=C(COc1ccc(-c2nnco2)cc1)N1CCN(S(=O)(=O)c2ccccc2)CC1`, which Potency is on record?
Its Potency is inconclusive [inhibitor, partial curve].

For `CN(C)S(=O)(=O)c1cccc(C(=O)NCC(=O)NC2CCN(Cc3ccccc3)CC2)c1`, which activity change, negative = growth inhibition is on record?
Its activity change, negative = growth inhibition is inconclusive: -32.9% [inhibitor].

Which activity change, negative = growth inhibition does the source give for `COC(=O)CC1(CC(N)=O)SCCS1` here?
Its activity change, negative = growth inhibition is inconclusive: -32.1% [inhibitor].

With `CCOC(=O)N1CCN(C(=O)Nc2cccc(Cl)c2)CC1` as the compound, how does the Potency read?
Its Potency is “inactive”.
